The values below come from article PMC12820563.

The other results are listed elsewhere or left out. The list includes weakly bound sequences.

The assay addresses T1, MBP-FoxP3dN (UniProt Q99JB6).
T1 sequence: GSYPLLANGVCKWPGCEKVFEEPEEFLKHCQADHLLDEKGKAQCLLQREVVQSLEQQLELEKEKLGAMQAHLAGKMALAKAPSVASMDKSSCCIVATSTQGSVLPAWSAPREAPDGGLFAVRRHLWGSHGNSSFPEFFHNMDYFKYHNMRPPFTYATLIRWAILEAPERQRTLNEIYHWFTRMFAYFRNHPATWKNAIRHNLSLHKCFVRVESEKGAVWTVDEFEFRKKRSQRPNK
Put plainly: PD-seq (MBP pull-down with sequencing). As to conditions: 20 mM Tris-HCl pH 7.5, 100 mM NaCl, 1.5 mM MgCl2, 0.4 uM protein, 0.1 uM dsDNA library, 30 min, room temperature, amylose pull-down; high values mean tight binding; double strand, one strand shown.
Regarding “GATGATTGTTCTCCCAGCTGATGAATTCGCACACTCGAGTAAACAAATTTTCCTAATCTTTCTGTTCAAGCGCCATCTAC”, the binding signal (RPM ratio (pull-down/input)) was 0.484. Consider “GATGATTGTTCTCCCAGCTGATGAATTCGATGTGTCGAGTAAACAAATTTTCCTAATCTTTCTGTTCAAGCGCCATCTAC”, for which the binding signal (RPM ratio (pull-down/input)) turned out to be 3.69. For “GATGATTGTTCTCCCAGCTGATGAATTCGCACCCTCGAGTAAACAAATTTTCCTAATCTTTCTGTTCAAGCGCCATCTAC” the value was 0.48. For the sequence “GATGATTGTTCTCCCAGCTGATGAATTCGAGATATCGAGTAAACAAATTTTCCTAATCTTTCTGTTCAAGCGCCATCTAC”, the binding signal (RPM ratio (pull-down/input)) turned out to be 0.404. In the case of “GATGATTGTTCTCCCAGCTGATGAATTGTAGTATTCGAGTAAACAAATTTTCCTAATCTTTCTGTTCAAGCGCCATCTAC”, the binding signal (RPM ratio (pull-down/input)) was 2.06. As to “GATGATTGTTCTCCCAGCTGATGAATTAGGCGACTCGAGTAAACAAATTTTCCTAATCTTTCTGTTCAAGCGCCATCTAC”, the binding signal (RPM ratio (pull-down/input)) came out at 1.56.

Take “GATGATTGTTCTCCCAGCTGATGAATTGCGGGTATCGAGTAAACAAATTTTCCTAATCTTTCTGTTCAAGCGCCATCTAC”: the binding signal (RPM ratio (pull-down/input)) worked out at 1.18. As to “GATGATTGTTCTCCCAGCTGATGAATTCGCTGCTTCGAGTAAACAAATTTTCCTAATCTTTCTGTTCAAGCGCCATCTAC”, the binding signal (RPM ratio (pull-down/input)) is 0.563.

“GATGATTGTTCTCCCAGCTGATGAATTCACGTACTCGAGTAAACAAATTTTCCTAATCTTTCTGTTCAAGCGCCATCTAC”: the binding signal (RPM ratio (pull-down/input)) came to 0.409. For “GATGATTGTTCTCCCAGCTGATGAATTTCTCACTTCGAGTAAACAAATTTTCCTAATCTTTCTGTTCAAGCGCCATCTAC” the value was 0.293. With “GATGATTGTTCTCCCAGCTGATGAATTTCTGGCGTCGAGTAAACAAATTTTCCTAATCTTTCTGTTCAAGCGCCATCTAC”, the binding signal (RPM ratio (pull-down/input)) worked out at 0.366.

Regarding “GATGATTGTTCTCCCAGCTGATGAATTTCCTAAGTCGAGTAAACAAATTTTCCTAATCTTTCTGTTCAAGCGCCATCTAC”, the binding signal (RPM ratio (pull-down/input)) is 0.192. As to “GATGATTGTTCTCCCAGCTGATGAATTTGACAGATCGAGTAAACAAATTTTCCTAATCTTTCTGTTCAAGCGCCATCTAC”, the binding signal (RPM ratio (pull-down/input)) was 0.211.

“GATGATTGTTCTCCCAGCTGATGAATTCAGGCGCTCGAGTAAACAAATTTTCCTAATCTTTCTGTTCAAGCGCCATCTAC”: the binding signal (RPM ratio (pull-down/input)) turned out to be 0.482. To “GATGATTGTTCTCCCAGCTGATGAATTACAAGTTTCGAGTAAACAAATTTTCCTAATCTTTCTGTTCAAGCGCCATCTAC” belongs 0.529; to “GATGATTGTTCTCCCAGCTGATGAATTTAAACTCTCGAGTAAACAAATTTTCCTAATCTTTCTGTTCAAGCGCCATCTAC”, 0.359. Regarding “GATGATTGTTCTCCCAGCTGATGAATTAGCAATTTCGAGTAAACAAATTTTCCTAATCTTTCTGTTCAAGCGCCATCTAC”, the binding signal (RPM ratio (pull-down/input)) is 1.59. For “GATGATTGTTCTCCCAGCTGATGAATTTGCGTCATCGAGTAAACAAATTTTCCTAATCTTTCTGTTCAAGCGCCATCTAC”, the binding signal (RPM ratio (pull-down/input)) is 2.32. To “GATGATTGTTCTCCCAGCTGATGAATTAAAAACGTCGAGTAAACAAATTTTCCTAATCTTTCTGTTCAAGCGCCATCTAC” belongs 0.293; to “GATGATTGTTCTCCCAGCTGATGAATTAATCTTCTCGAGTAAACAAATTTTCCTAATCTTTCTGTTCAAGCGCCATCTAC”, 0.334. Consider “GATGATTGTTCTCCCAGCTGATGAATTGTCTGGATCGAGTAAACAAATTTTCCTAATCTTTCTGTTCAAGCGCCATCTAC”, for which the binding signal (RPM ratio (pull-down/input)) was found to be 0.255. For “GATGATTGTTCTCCCAGCTGATGAATTTCCGAAGTCGAGTAAACAAATTTTCCTAATCTTTCTGTTCAAGCGCCATCTAC”, the binding signal (RPM ratio (pull-down/input)) was determined as 0.153.

Take “GATGATTGTTCTCCCAGCTGATGAATTTAGGTTCTCGAGTAAACAAATTTTCCTAATCTTTCTGTTCAAGCGCCATCTAC”: the binding signal (RPM ratio (pull-down/input)) came to 0.889.

Regarding “GATGATTGTTCTCCCAGCTGATGAATTGTTAAGATCGAGTAAACAAATTTTCCTAATCTTTCTGTTCAAGCGCCATCTAC”, the binding signal (RPM ratio (pull-down/input)) is 0.532. On to “GATGATTGTTCTCCCAGCTGATGAATTTTAGCAGTCGAGTAAACAAATTTTCCTAATCTTTCTGTTCAAGCGCCATCTAC”, for which the binding signal (RPM ratio (pull-down/input)) stood at 0.433. For “GATGATTGTTCTCCCAGCTGATGAATTAGCGACTTCGAGTAAACAAATTTTCCTAATCTTTCTGTTCAAGCGCCATCTAC” the value was 0.891; for “GATGATTGTTCTCCCAGCTGATGAATTAACCGCATCGAGTAAACAAATTTTCCTAATCTTTCTGTTCAAGCGCCATCTAC”, 0.862. On to “GATGATTGTTCTCCCAGCTGATGAATTTCGCTACTCGAGTAAACAAATTTTCCTAATCTTTCTGTTCAAGCGCCATCTAC”, for which the binding signal (RPM ratio (pull-down/input)) turned out to be 1.8. To “GATGATTGTTCTCCCAGCTGATGAATTGTGGAGCTCGAGTAAACAAATTTTCCTAATCTTTCTGTTCAAGCGCCATCTAC” belongs 0.355; to “GATGATTGTTCTCCCAGCTGATGAATTCAGCTGGTCGAGTAAACAAATTTTCCTAATCTTTCTGTTCAAGCGCCATCTAC”, 0.549; to “GATGATTGTTCTCCCAGCTGATGAATTACAAAGTTCGAGTAAACAAATTTTCCTAATCTTTCTGTTCAAGCGCCATCTAC”, 0.36. With “GATGATTGTTCTCCCAGCTGATGAATTACAGGATTCGAGTAAACAAATTTTCCTAATCTTTCTGTTCAAGCGCCATCTAC”, the binding signal (RPM ratio (pull-down/input)) turned out to be 0.352. In the case of “GATGATTGTTCTCCCAGCTGATGAATTGACAATTTCGAGTAAACAAATTTTCCTAATCTTTCTGTTCAAGCGCCATCTAC”, the binding signal (RPM ratio (pull-down/input)) came to 0.434.

As for “GATGATTGTTCTCCCAGCTGATGAATTGCTTGCTTCGAGTAAACAAATTTTCCTAATCTTTCTGTTCAAGCGCCATCTAC”, the binding signal (RPM ratio (pull-down/input)) stood at 1.19. To “GATGATTGTTCTCCCAGCTGATGAATTACCTCATTCGAGTAAACAAATTTTCCTAATCTTTCTGTTCAAGCGCCATCTAC” belongs 0.4. Regarding “GATGATTGTTCTCCCAGCTGATGAATTAGTTCACTCGAGTAAACAAATTTTCCTAATCTTTCTGTTCAAGCGCCATCTAC”, the binding signal (RPM ratio (pull-down/input)) was determined as 0.55. As to “GATGATTGTTCTCCCAGCTGATGAATTAATGGTGTCGAGTAAACAAATTTTCCTAATCTTTCTGTTCAAGCGCCATCTAC”, the binding signal (RPM ratio (pull-down/input)) was found to be 1.15. With “GATGATTGTTCTCCCAGCTGATGAATTTTAAGAGTCGAGTAAACAAATTTTCCTAATCTTTCTGTTCAAGCGCCATCTAC”, the binding signal (RPM ratio (pull-down/input)) came to 0.228. Consider “GATGATTGTTCTCCCAGCTGATGAATTCTCCCTCTCGAGTAAACAAATTTTCCTAATCTTTCTGTTCAAGCGCCATCTAC”, for which the binding signal (RPM ratio (pull-down/input)) worked out at 0.238. As to “GATGATTGTTCTCCCAGCTGATGAATTTTAGACTTCGAGTAAACAAATTTTCCTAATCTTTCTGTTCAAGCGCCATCTAC”, the binding signal (RPM ratio (pull-down/input)) is 0.472.
